The source of these data is the BET-seq Pho4 binding data (Le et al. 2018).

The other results are listed elsewhere or left out. The energies were worked out here from pooled read counts, against the library average; single values are noisy.

In this test the target is T1, Pho4 (S. cerevisiae) (UniProt P07270).
T1 sequence: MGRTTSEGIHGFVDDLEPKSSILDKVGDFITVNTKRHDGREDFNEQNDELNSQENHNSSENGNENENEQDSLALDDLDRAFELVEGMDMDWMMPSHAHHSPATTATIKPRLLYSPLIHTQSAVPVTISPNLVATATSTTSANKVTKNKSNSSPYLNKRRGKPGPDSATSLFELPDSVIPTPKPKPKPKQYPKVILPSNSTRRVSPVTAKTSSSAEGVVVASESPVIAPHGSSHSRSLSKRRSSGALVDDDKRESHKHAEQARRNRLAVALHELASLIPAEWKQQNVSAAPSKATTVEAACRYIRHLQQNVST
The test is described as follows: relative binding free energy (BET-seq); higher = weaker binding. To be noted: reference: library average.
Turning to GGACACACGTGTATGT, the “relative binding free energy” value was determined as 0.02 kcal/mol.
Under GGTATCACGTGAGGTA stands 0.33 kcal/mol; under GATTTCACGTGTTGCG, 0.39 kcal/mol; under TGAAGCACGTGTGTGC, -0.15 kcal/mol.
Under GGAGGCACGTGTGAAC stands 0.07 kcal/mol; under TTGAACACGTGGTTAA, 0.01 kcal/mol.
Take TGGGTCACGTGAGTAG: the “relative binding free energy” value stood at 0.35 kcal/mol.
For ACAAGCACGTGTTATG, the “relative binding free energy” value was 0.07 kcal/mol.
Under AGTTTCACGTGTACTT stands 0.23 kcal/mol; under ATAAACACGTGAGTAT, 0.16 kcal/mol; under TGTGTCACGTGCGTGT, 0 kcal/mol.
For CGTGGCACGTGATATG, the “relative binding free energy” value worked out at 0 kcal/mol.
Take TTTGACACGTGGTCAA: the “relative binding free energy” value was -0.13 kcal/mol.
Under AGTTTCACGTGGGGTT stands 0.14 kcal/mol; under CATTTCACGTGGAATT, 0.37 kcal/mol.
Under GACTACACGTGGGGTG stands -0.08 kcal/mol; under GGAATCACGTGAGATG, 0.34 kcal/mol; under TTGGGCACGTGCGTCT, -0.1 kcal/mol.
Turning to TTGGCCACGTGATTTA, the “relative binding free energy” value amounted to 0 kcal/mol.
As to GAAGGCACGTGTCTTG, the “relative binding free energy” value was -0.02 kcal/mol.
Under TTTGGCACGTGCGTCT stands -0.28 kcal/mol; under ATACACACGTGTTGTG, -0.06 kcal/mol; under GCGGGCACGTGCATGG, -0.11 kcal/mol.
Under TTTACCACGTGTGGGT stands 0.07 kcal/mol; under ATATTCACGTGTCGAT, 0.18 kcal/mol.
The result for TTTCACACGTGAAGGG reads 0.38 kcal/mol; that for ATTCTCACGTGGGCTG, 0.07 kcal/mol; that for GTAGGCACGTGAGTAG, 0.02 kcal/mol.
Take TTGTCCACGTGATAGG: the “relative binding free energy” value stood at 0.19 kcal/mol.
For CGTTTCACGTGCATGG, the “relative binding free energy” value was 0.18 kcal/mol.
Turning to AGTGTCACGTGTACTG, the “relative binding free energy” value is -0.17 kcal/mol.
Under CCTTGCACGTGTGGTA stands -0.04 kcal/mol; under TTTCGCACGTGGTTTG, -0.24 kcal/mol; under GTGCTCACGTGGGCTT, 0 kcal/mol.
On to ATTGGCACGTGTAATT, for which the “relative binding free energy” value stood at 0.04 kcal/mol.
Turning to TGTTTCACGTGTGGGG, the “relative binding free energy” value was found to be 0.31 kcal/mol.
Under ATGGGCACGTGGGCTG stands -0.33 kcal/mol; under TGCGACACGTGGGCTG, -0.22 kcal/mol.
CTGTGCACGTGATGAT: the “relative binding free energy” value was determined as 0.16 kcal/mol.
Under TGATGCACGTGGGTAA stands -0.14 kcal/mol; under ACTGGCACGTGTCGTG, -0.11 kcal/mol.
Under GGCTGCACGTGAGAGT stands 0.14 kcal/mol; under TTCTTCACGTGAGTGC, 0.44 kcal/mol; under GAGGGCACGTGTCGTT, 0.06 kcal/mol.
The result for GGCGGCACGTGCCGGG reads -0.24 kcal/mol; that for CGGCACACGTGAGGGG, 0.08 kcal/mol.
As for TGTTTCACGTGATTTT, the “relative binding free energy” value was 0.35 kcal/mol.
In the case of TTATACACGTGAATAG, the “relative binding free energy” value is 0.28 kcal/mol.
The result for TGGTTCACGTGGAGTA reads 0.2 kcal/mol.
Under TGAGTCACGTGAAAGG stands 0.29 kcal/mol; under GTTAGCACGTGAGTAT, 0.21 kcal/mol; under CAATACACGTGGGGGA, -0.03 kcal/mol.
Turning to GGTGTCACGTGATTGT, the “relative binding free energy” value amounted to 0.27 kcal/mol.
Under AGTGGCACGTGCTGGG stands -0.18 kcal/mol.
As to AGCAGCACGTGGTGGG, the “relative binding free energy” value was -0.2 kcal/mol.
In the case of GTGTTCACGTGGGAGC, the “relative binding free energy” value stood at 0.21 kcal/mol.
The result for TGTTCCACGTGGTGAG reads 0.09 kcal/mol; that for TTGGTCACGTGGCAAA, 0.21 kcal/mol; that for TCCTTCACGTGTGTGG, 0.18 kcal/mol.
In the case of GCTGTCACGTGTCGTG, the “relative binding free energy” value is 0.11 kcal/mol.
On to TAGAGCACGTGTGGTT, for which the “relative binding free energy” value came to 0.04 kcal/mol.
Under CTGAGCACGTGATGTT stands 0.04 kcal/mol; under TGATGCACGTGTAGGC, 0.02 kcal/mol.
Under CTTTGCACGTGTTGTC stands 0 kcal/mol.
ATTAACACGTGGTTTA: the “relative binding free energy” value was -0.04 kcal/mol.
The result for TGTGACACGTGATAAG reads 0.04 kcal/mol.
The result for TGTAGCACGTGTAAGG reads 0.01 kcal/mol; that for CGATACACGTGGGGTG, -0.16 kcal/mol; that for GTAGGCACGTGTTCGG, 0.05 kcal/mol.
The result for AATGTCACGTGCAGTA reads 0.18 kcal/mol.
On to TAGTGCACGTGTAATG, for which the “relative binding free energy” value amounted to 0.14 kcal/mol.
Take TGGGTCACGTGATACG: the “relative binding free energy” value worked out at 0.29 kcal/mol.
In the case of TTTAGCACGTGGAGAG, the “relative binding free energy” value was -0.06 kcal/mol.
With AAAGTCACGTGGATTG, the “relative binding free energy” value was -0.04 kcal/mol.
For the sequence GACGTCACGTGGGCTG, the “relative binding free energy” value came out at 0.02 kcal/mol.
Under GATAGCACGTGTTTTG stands 0 kcal/mol; under GTAGGCACGTGCTATG, -0.16 kcal/mol; under GCGGTCACGTGTTGTG, 0.02 kcal/mol.
As for TTTGCCACGTGGATAT, the “relative binding free energy” value is -0.06 kcal/mol.
Under ACGGGCACGTGTTAAG stands -0.07 kcal/mol; under TATGACACGTGGCAGT, -0.05 kcal/mol.
As for CATATCACGTGTTTTT, the “relative binding free energy” value is 0.13 kcal/mol.
As for ATGCACACGTGTTGGT, the “relative binding free energy” value was 0.07 kcal/mol.
Under ATGTCCACGTGTTAGG stands -0.01 kcal/mol; under ACGGACACGTGAGGTG, 0.32 kcal/mol; under GGATTCACGTGTTGGA, 0.18 kcal/mol.
Under TACAGCACGTGTGGAT stands -0.02 kcal/mol; under GAAGTCACGTGATATA, 0.34 kcal/mol; under TTGTGCACGTGGAGGA, -0.03 kcal/mol.
The result for GTTTGCACGTGCTAGT reads -0.06 kcal/mol.
On to TAGCTCACGTGTATTG, for which the “relative binding free energy” value is 0.18 kcal/mol.
For ATGAGCACGTGAGTTA, the “relative binding free energy” value turned out to be 0.18 kcal/mol.
On to GAAGTCACGTGTGGCG, for which the “relative binding free energy” value is 0.11 kcal/mol.
The result for GGGTTCACGTGGGTCC reads 0.25 kcal/mol; that for GAGTGCACGTGAGAAG, 0.35 kcal/mol.
For ATGAACACGTGAGTGT, the “relative binding free energy” value turned out to be 0.35 kcal/mol.
Consider GTGGGCACGTGTATAG, for which the “relative binding free energy” value was -0.04 kcal/mol.
As to ACATTCACGTGGTGGA, the “relative binding free energy” value was 0.26 kcal/mol.
For the sequence AGTATCACGTGAGTAA, the “relative binding free energy” value amounted to 0.3 kcal/mol.
The result for AAGGTCACGTGTTTCA reads 0.2 kcal/mol.
With TCTTTCACGTGGATAG, the “relative binding free energy” value is 0.19 kcal/mol.
As to CGGTACACGTGTAGGG, the “relative binding free energy” value was -0.06 kcal/mol.
Under GTGGGCACGTGAGGAG stands 0.18 kcal/mol; under TAGTTCACGTGGTCGG, 0.02 kcal/mol.
Under TTAAGCACGTGGATGT stands -0.05 kcal/mol; under CAGGGCACGTGGGAGC, -0.21 kcal/mol.
Consider AGGAGCACGTGTGCTG, for which the “relative binding free energy” value was -0.14 kcal/mol.
As to TGTGACACGTGGTCAT, the “relative binding free energy” value is -0.16 kcal/mol.
As to ATGCTCACGTGGTAGG, the “relative binding free energy” value was determined as 0.06 kcal/mol.
The result for GCATTCACGTGTTTGA reads 0.15 kcal/mol; that for GGCATCACGTGGTAGT, 0.14 kcal/mol.
In the case of GGGGCCACGTGTGTTA, the “relative binding free energy” value is -0.08 kcal/mol.
Turning to TAAAACACGTGTATGG, the “relative binding free energy” value worked out at 0 kcal/mol.
The result for GTTCGCACGTGAGGGC reads 0.15 kcal/mol; that for AGGCACACGTGTTGGG, -0.02 kcal/mol.
